In the supplement of paper PMC6206098:
± gives the uncertainty stated by the source. Shown are siRNA guide strands that differ only in the seed, positions 2 to 7.

How the values were obtained:
[1] = tested on: 3LL; assay: cell viability relative to siNT1 control; higher = less toxic; conditions: concentration: 10 nM; 96 h; Mus musculus;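 further: Luminescence-based viability of cells reverse transfected in 384-well plates with lipid-complexed siRNAs built on a non-toxic 19mer backbone whose passenger strand carries 2′-O-methyl groups at positions 1 and 2, triplicates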
[2] = tested on: H460; assay: cell viability relative to lipid-only control; HeyA8 human ovarian and H460 human lung cancer; M565 mouse liver and 3LL mouse lung cancer; siNT1 is a non-toxic control siRNA; higher = less toxic; conditions: concentration: 10 nM; 96 h; Homo sapiens
[3] = tested on: HeyA8; assay: as above; conditions: concentration: 10 nM; 96 h; Homo sapiens
[4] = tested on: M565; assay: as above; conditions: concentration: 10 nM; 96 h; Mus musculus
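Wherever cell viability relative to lipid-only control is given: reverse lipid transfection in 384-well plates, in triplicate, of duplexes on a non-toxic 19mer backbone with passenger strand 2′-O-methylated at positions 1 and 2, luminescence viability read-out.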

Row | Sequence | cell viability [1] [%] | cell viability [2] [%] | cell viability [3] [%] | cell viability [4] [%]
1 | UGGCAAGACAUGUAAACCAAA | 75.3 ± 8.4 | 44.1 ± 3.1 | 32.1 ± 0.8 | 30.9 ± 1.3
2 | UGGCAAUACAUGUAAACCAAA | 54.1 ± 8 | 65.4 ± 15 | 51.8 ± 5.9 | 18.1 ± 2.1
3 | UGGCACAACAUGUAAACCAAA | 43.9 ± 4.4 | 29.8 ± 12 | 23.4 ± 0.9 | 27.2 ± 1.7
4 | UGGCACCACAUGUAAACCAAA | 20.7 ± 2.9 | 15.3 ± 4.6 | 9.55 ± 1.2 | 29.8 ± 10
5 | UGGCACGACAUGUAAACCAAA | 42 ± 5.5 | 35.9 ± 1.3 | 52.9 ± 4.1 | 24.8 ± 3.8
6 | UGGCACUACAUGUAAACCAAA | 13.5 ± 1.2 | 21.6 ± 1.9 | 23.4 ± 1.2 | 14.5 ± 2.7
7 | UGGCAGAACAUGUAAACCAAA | 34.5 ± 9.1 | 26.5 ± 4.1 | 9.22 ± 1.8 | 14.1 ± 4.3
8 | UGGCAGCACAUGUAAACCAAA | 5.78 ± 0.91 | 21.1 ± 0.76 | 1.74 ± 0.23 | 7.28 ± 1.1
9 | UGGCAGGACAUGUAAACCAAA | 12.8 ± 1.2 | 13.5 ± 1.9 | 3.95 ± 0.68 | 16 ± 1.6
10 | UGGCAGUACAUGUAAACCAAA | 31 ± 2.5 | 19.3 ± 1.8 | 6.18 ± 1.5 | 15.5 ± 1.9
11 | UGGCAUAACAUGUAAACCAAA | 90.1 ± 3.5 | 49.7 ± 7.1 | 32.7 ± 3 | 42.8 ± 3.3
12 | UGGCAUCACAUGUAAACCAAA | 43 ± 3.8 | 25.6 ± 4.7 | 7.18 ± 5.3 | 30.2 ± 2.3
13 | UGGCAUGACAUGUAAACCAAA | 52.4 ± 3 | 36.1 ± 9 | 6.58 ± 1.2 | 21.3 ± 5.1
14 | UGGCAUUACAUGUAAACCAAA | 72.3 ± 4.3 | 43.3 ± 1.5 | 4.64 ± 0.33 | 25.8 ± 3.6
15 | UGGCCAAACAUGUAAACCAAA | 54.7 ± 9.5 | 59.2 ± 12 | 54 ± 7.7 | 34.2 ± 0.51
16 | UGGCCACACAUGUAAACCAAA | 64.4 ± 13 | 37.5 ± 6.8 | 15.1 ± 1.4 | 22.1 ± 4
17 | UGGCCAGACAUGUAAACCAAA | 33.2 ± 11 | 43.8 ± 3.7 | 39.3 ± 5.2 | 46.7 ± 4.5
18 | UGGCCAUACAUGUAAACCAAA | 36 ± 9.3 | 54.2 ± 5.1 | 26.4 ± 5.8 | 9.53 ± 8.5
19 | UGGCCCAACAUGUAAACCAAA | 15.4 ± 7 | 64.2 ± 7.6 | 49.5 ± 7.6 | 41.4 ± 0.71
20 | UGGCCCCACAUGUAAACCAAA | 10.8 ± 3.6 | 36.4 ± 2 | 31.4 ± 3.7 | 21.3 ± 7.6

Row | Sequence | cell viability [1] [%] | cell viability [2] [%] | cell viability [3] [%] | cell viability [4] [%]
21 | UGGCCCGACAUGUAAACCAAA | 44 ± 1.2 | 47.3 ± 5.7 | 45 ± 3.8 | 34.3 ± 3.3
22 | UGGCCCUACAUGUAAACCAAA | 29.9 ± 4.6 | 31.1 ± 2.2 | 17.4 ± 1.8 | 36.1 ± 9.2
23 | UGGCCGAACAUGUAAACCAAA | 65.1 ± 7.2 | 33.6 ± 0.8 | 16.5 ± 1.9 | 33 ± 2.8
24 | UGGCCGCACAUGUAAACCAAA | 8.13 ± 4.3 | 24.4 ± 0.53 | 7.39 ± 0.8 | 6.8 ± 3.4
25 | UGGCCGGACAUGUAAACCAAA | 37.8 ± 2.9 | 17.3 ± 1.2 | 5.79 ± 0.84 | 37.6 ± 2.3
26 | UGGCCGUACAUGUAAACCAAA | 36 ± 1.5 | 28.1 ± 3.7 | 7.4 ± 0.44 | 7.15 ± 5.8
27 | UGGCCUAACAUGUAAACCAAA | 85.2 ± 5 | 83.8 ± 6.1 | 34.7 ± 3.6 | 40.6 ± 4.9
28 | UGGCCUCACAUGUAAACCAAA | 53.1 ± 8.7 | 28 ± 4.1 | 6.53 ± 1.3 | 8.85 ± 6.7
29 | UGGCCUGACAUGUAAACCAAA | 72.3 ± 10 | 39.1 ± 4.4 | 30.7 ± 2.1 | 48 ± 1.5
30 | UGGCCUUACAUGUAAACCAAA | 70.7 ± 12 | 55.5 ± 5.6 | 25 ± 1.3 | 19.2 ± 3.2
31 | UGGCGAAACAUGUAAACCAAA | 80.1 ± 6.9 | 34.4 ± 13 | 38.3 ± 4.2 | 41.9 ± 6.2
32 | UGGCGACACAUGUAAACCAAA | 23.3 ± 4 | 26.8 ± 3.8 | 8.81 ± 1.5 | 22.6 ± 1.3
33 | UGGCGAGACAUGUAAACCAAA | 63.3 ± 4.9 | 13.7 ± 1.1 | 9.15 ± 1.6 | 43.9 ± 5.4
34 | UGGCGAUACAUGUAAACCAAA | 58.1 ± 13 | 40.6 ± 8.9 | 5.53 ± 0.69 | 28.4 ± 6.5
35 | UGGCGCAACAUGUAAACCAAA | 59.4 ± 8.3 | 37.5 ± 2.9 | 9.72 ± 2.5 | 36.6 ± 7.1
36 | UGGCGCCACAUGUAAACCAAA | 22.9 ± 6.8 | 23.5 ± 5.4 | 9.16 ± 0.76 | 21 ± 1.2
37 | UGGCGCGACAUGUAAACCAAA | 47.9 ± 3.9 | 38.6 ± 3.7 | 25.4 ± 1.4 | 28.1 ± 3.9
38 | UGGCGCUACAUGUAAACCAAA | 29 ± 7.2 | 46.4 ± 3.8 | 36.6 ± 3.3 | 26.9 ± 6.2
39 | UGGCGGAACAUGUAAACCAAA | 37.2 ± 4.1 | 32.4 ± 5.7 | 4.88 ± 0.35 | 30.1 ± 3.9
40 | UGGCGGCACAUGUAAACCAAA | 3.81 ± 2.1 | 21.6 ± 4.3 | 5.09 ± 0.93 | 10 ± 2.2

Row | Sequence | cell viability [1] [%] | cell viability [2] [%] | cell viability [3] [%] | cell viability [4] [%]
41 | UGGCGGGACAUGUAAACCAAA | 28.3 ± 8.4 | 10.2 ± 0.99 | 2.66 ± 0.38 | 27.7 ± 2.5
42 | UGGCGGUACAUGUAAACCAAA | 26.1 ± 1.5 | 15.5 ± 2.1 | 2.38 ± 0.3 | 17.4 ± 1
43 | UGGCGUAACAUGUAAACCAAA | 87.2 ± 13 | 71 ± 9.5 | 27.1 ± 3.3 | 58.4 ± 14
44 | UGGCGUCACAUGUAAACCAAA | 33.7 ± 28 | 28.2 ± 1.4 | 14.2 ± 3.3 | 13.3 ± 1.4
45 | UGGCGUGACAUGUAAACCAAA | 59.6 ± 5.9 | 46.6 ± 9.1 | 17.6 ± 1.9 | 31.7 ± 7.8
46 | UGGCGUUACAUGUAAACCAAA | 78.3 ± 5.5 | 55.5 ± 4.8 | 18.7 ± 2 | 60.6 ± 15
47 | UGGCUAAACAUGUAAACCAAA | 69.8 ± 2.4 | 46.2 ± 4 | 20.8 ± 4.1 | 37.2 ± 4
48 | UGGCUACACAUGUAAACCAAA | 42.6 ± 8.9 | 23.9 ± 1.7 | 3.97 ± 0.41 | 33.5 ± 7.3
49 | UGGCUAGACAUGUAAACCAAA | 55.2 ± 7.2 | 30.6 ± 4.4 | 7.68 ± 1.3 | 24.5 ± 3.2
50 | UGGCUAUACAUGUAAACCAAA | 36.4 ± 11 | 31 ± 0.91 | 3.56 ± 1.1 | 33 ± 7.3
51 | UGGCUCAACAUGUAAACCAAA | 18.8 ± 1.4 | 29.5 ± 0.94 | 8.73 ± 1 | 44.9 ± 2.9
52 | UGGCUCCACAUGUAAACCAAA | 9.08 ± 2.1 | 21.1 ± 1.5 | 8.54 ± 0.89 | 31.8 ± 2.2
53 | UGGCUCGACAUGUAAACCAAA | 15.9 ± 2.6 | 23.1 ± 3.4 | 15.6 ± 2.4 | 24.3 ± 3.4
54 | UGGCUCUACAUGUAAACCAAA | 7.55 ± 0.72 | 11.4 ± 2.7 | 3.8 ± 0.36 | 29.9 ± 6.1
55 | UGGCUGAACAUGUAAACCAAA | 27.5 ± 5 | 37.8 ± 6.2 | 23.1 ± 2.1 | 23 ± 3.3
56 | UGGCUGCACAUGUAAACCAAA | 25.4 ± 5.5 | 23.2 ± 1.2 | 5 ± 0.78 | 5.78 ± 1.3
57 | UGGCUGGACAUGUAAACCAAA | 2.92 ± 0.2 | 7.78 ± 0.82 | 1.68 ± 1.7 | 8.51 ± 1.3
58 | UGGCUGUACAUGUAAACCAAA | 21 ± 3.5 | 41.7 ± 2.9 | 14.6 ± 0.69 | 14.2 ± 2.9
59 | UGGCUUAACAUGUAAACCAAA | 95 ± 12 | 55.6 ± 7.8 | 40.7 ± 6.1 | 38.5 ± 6.3
